Measured values from PubChem BioAssay AID1030 (National Center for Advancing Translational Sciences (NCATS), 2008).
Hit rate of the full screen: of about 220,000 compounds, about 16,000 (7.3%) were called active. Inconclusive means that the source gave no clear call. Such entries were picked first, then a sample of the others. Calls follow the shape of the dose curve; as a rule, active = well fitted inhibition curve with a large enough effect (not every such curve was filed as active); inconclusive = small, poorly fitted or top-dose-only effect, or another doubt; inactive = no such curve, though single readings can be large or run the other way. Potencies of inconclusive entries are left out as doubtful fits.

Target: Aldehyde dehydrogenase 1A1 (Homo sapiens) (UniProt P00352)
UniProt P00352, sequence (P00352 whole entry, looked up): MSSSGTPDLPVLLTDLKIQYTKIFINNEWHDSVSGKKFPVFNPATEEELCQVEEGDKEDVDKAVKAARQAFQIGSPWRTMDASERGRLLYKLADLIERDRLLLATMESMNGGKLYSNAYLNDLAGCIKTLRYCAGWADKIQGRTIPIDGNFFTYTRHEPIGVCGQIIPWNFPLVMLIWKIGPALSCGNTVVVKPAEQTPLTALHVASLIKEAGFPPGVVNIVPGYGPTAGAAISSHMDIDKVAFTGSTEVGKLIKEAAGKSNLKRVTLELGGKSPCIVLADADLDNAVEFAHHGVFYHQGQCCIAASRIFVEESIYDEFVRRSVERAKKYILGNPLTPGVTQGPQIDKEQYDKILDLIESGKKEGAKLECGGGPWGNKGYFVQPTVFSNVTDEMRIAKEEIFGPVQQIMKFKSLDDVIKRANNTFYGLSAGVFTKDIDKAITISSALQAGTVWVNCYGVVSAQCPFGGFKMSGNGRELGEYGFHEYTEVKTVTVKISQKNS
Assay: qHTS Assay for Inhibitors of Aldehyde Dehydrogenase 1 (ALDH1A1);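 as to activity, negative = inhibition: plate controls were no enzyme wells and a reference inhibitor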
Conditions: Purified ALDH1A1, NADH fluorescence, propionaldehyde substrate; series mostly up to 75.3 µM; activity, negative = inhibition: at the top concentration
Potency is read from the fitted curve at half-maximal effect; tags tell the direction and shape of the fitted curve.

Row | Compound | Potency | activity, negative = inhibition
1 | O=C(CSCc1ccccc1)Nc1ccc(Cl)cn1 | inconclusive [inhibitor, single point] | –
2 | O=C(COC(=O)c1cnc(Cl)c(Cl)c1)NCc1cccs1 | active: 20 µM | –
3 | Cc1ccc(-n2c3c(cc(C(=O)NC4CCSC4=O)c2=O)C(=O)CCC3)cc1 (configuration not stated) | inconclusive [inhibitor, single point] | –
4 | CCC1=NN(C(=O)c2cccnc2)C(O)(C(F)(F)F)C1 (configuration not stated) | – | inactive: -4.4%
5 | O=S(=O)(c1ccc2c(c1)nc1n2CCC1)N1CCOCC1 | – | inactive: 0.02%
6 | O=C1c2ccccc2C(=O)N1CC#CCN1CCN(C2CCCCC2)CC1 | inconclusive [inhibitor, single point] | –
7 | CC(O)CNc1cc(N)c([N+](=O)[O-])cc1[N+](=O)[O-] (configuration not stated) | – | inactive: 1.23%
8 | CCCSc1nc(=S)n(Cc2ccccc2)c(C)c1C(C)=O | inconclusive [inhibitor, partial curve] | –
9 | O=C(Nc1ccc(Cn2cccn2)cc1)c1ccc(COc2ccc(Br)cc2)cc1 | – | inactive: 3.48%
10 | CC1CCc2nn(CC(=O)NC3CCCC3)cc2C1 (configuration not stated) | – | inactive: 9.28%
11 | N#Cc1nc(-c2ccc(Cl)cc2)oc1NCc1cccc2c1OCO2 | inconclusive [inhibitor, partial curve] | –
12 | COc1ccc(OC)c(/C=N/NC(=O)CSc2nnc(C)n2-c2ccccc2)c1 | – | inactive: -10.8%
13 | O=c1cc(N2CCCCC2)nc2n1CCCS2 | inconclusive [inhibitor, single point] | –
14 | COc1ccccc1-n1cnnc1SCC(=O)NC1CCS(=O)(=O)C1 (configuration not stated) | inconclusive [inhibitor, single point] | –
15 | S=C(Nc1ccc(Cl)cc1)Nc1cccc2cnccc12 | active: 17.8 µM | –
16 | O=C(c1ccco1)N1c2ccccc2Sc2ccccc21 | inconclusive [inhibitor, single point] | –
17 | COc1cccc(-c2cc(C(=O)Nc3ccc4c(c3)OCCO4)c3ccccc3n2)c1 | – | inactive: 93.8%
18 | CC(C)c1ccc(CNC(=O)CCc2ccccc2)cc1 | inconclusive [inhibitor, single point] | –
19 | O=C(Cn1cnc2ccccc21)N/N=C/c1ccco1 | inconclusive [inhibitor, single point] | –
20 | Nc1ccc2c(c1)Nc1ccccc1CC2 | – | inactive: -3.98%
21 | Cc1ccc(-c2n[nH]c(=O)c3ccccc23)cc1N | – | inactive: 10.1%
22 | COC(=O)c1cc(=O)n(-c2ccc(F)cc2)c(=Nc2ccc(F)cc2)s1 | – | inactive: 7.46%
23 | Cn1c(-c2sc3cc(C(F)(F)F)cnc3c2-c2cccs2)n[nH]c1=S | inconclusive [inhibitor, single point] | –
24 | Cc1ccc(C2/C(=C(\O)c3ccc4c(c3)OCCO4)C(=O)C(=O)N2CCCN(C)C)o1 (configuration not stated) | inconclusive [inhibitor, single point] | –
25 | O=C(c1ccccc1)c1ccc2nc(N3CCN(C(=O)c4ccco4)CC3)c3nncn3c2c1 | inconclusive [inhibitor, partial curve] | –
26 | COC(=O)c1ccc(C#Cc2ccccc2)o1 | inconclusive [inhibitor, single point] | –

Row | Compound | Potency | activity, negative = inhibition
27 | Cc1csc(=Nc2cccnc2)n1CC1CCCCC1 | inconclusive [inhibitor, single point] | –
28 | c1csc(-c2noc(CN3CCc4sccc4C3)n2)c1 | active: 20 µM | –
29 | O=C(c1cccc(Br)c1)N1CCN(C(=O)N2CCCCC2)CC1 | inconclusive [inhibitor, single point] | –
30 | CCCc1nnc(SCC(=O)N2CCCCC2C)n1CC1CCCO1 (configuration not stated) | – | inactive: -9.17%
31 | CCN(Cc1ccccc1)C(=S)Nc1cc(C(=O)OC)ccc1C(=O)OC | inconclusive [inhibitor, partial curve] | –
32 | COC(=O)/C=C/c1ccc2c(c1)OCO2 | inconclusive [inhibitor, single point] | –
33 | COCCNC(=O)CCCCCNS(=O)(=O)c1ccc(C)cc1 | inconclusive [inhibitor, single point] | –
34 | O=C(O)c1cccc(NC(=S)N/N=C/c2ccccn2)c1 | active: 20 µM | –
35 | CC(C)(C)C(=O)/C=c1\[nH]c(=O)/c(=C\c2ccc(F)cc2)s1 | – | inactive: 4.3%
36 | COc1cccc(CNC(=O)CCC2CCCN(C(=O)c3ccoc3)C2)c1 (configuration not stated) | inconclusive [inhibitor, single point] | –
37 | Cc1cc(C)n(-c2nc(C)nc3sc4c(c23)CCC(C)C4)n1 (configuration not stated) | inconclusive [inhibitor, single point] | –
38 | COc1ccc(C(=O)NNC(=O)CCCCC(=O)NNC(=O)c2ccc(OC)cc2)cc1 | inconclusive [inhibitor, partial curve] | –
39 | COC(=O)CNC(=O)COC(=O)c1cc(Cl)cc(Cl)c1N | inconclusive [inhibitor, partial curve] | –
40 | CCCOc1ccc(N2CC(C(=O)Nc3ccccc3F)CC2=O)cc1 (configuration not stated) | – | inactive: 9.69%
41 | CCOC(=O)c1c(NC(=S)NCC2CCCO2)sc(C)c1C (configuration not stated) | active: 17.8 µM | –
42 | O=C(Oc1ccccc1)C1O[C@@H]1c1ccccc1 (some centres not stated) | – | inactive: -6.55%
43 | COCCn1c(SCC(=O)Nc2cccc(C)n2)nnc1-c1ccco1 | inconclusive [inhibitor, single point] | –
44 | S=c1[nH]nc(CCc2ccc(Cl)cc2)o1 | inconclusive [inhibitor, single point] | –
45 | COc1ccc(-c2ccc(=O)n(Cc3cccc([N+](=O)[O-])c3)n2)cc1 | – | inactive: 0.192%
46 | C=CCSC1=C(C#N)C(c2ccccc2C)CC(=O)N1 (configuration not stated) | inconclusive [inhibitor, single point] | –
47 | COc1ccc(N2CCN(C(C)C(=O)N3CCCC3)CC2)cc1 (configuration not stated) | inconclusive [inhibitor, single point] | –
48 | Cc1ccccc1OCC1Cc2c(nc(N)c(C#N)c2N)O1 (configuration not stated) | inconclusive [inhibitor, partial curve] | –
49 | CCOC(=O)c1cn2nc(-c3ccc(OC)cc3)cc2nc1C1CCN(C(=O)OC(C)(C)C)CC1 | inconclusive [inhibitor, full curve] | –
50 | Cc1ccc2nc(-c3cccnc3SCC(=O)N3c4ccccc4CC3C)[nH]c2c1 (configuration not stated) | inconclusive [inhibitor, partial curve] | –
51 | C=CC1=C2C=C(C3CC3)N(CCCCO)C=C2C(=O)C(C)(OC(=O)c2ccco2)C1=O (configuration not stated) | – | inactive: 1.51% [at 13.5 µM]
52 | Cn1c(Cc2ccccc2)nnc1SCc1ccc(C(=O)O)cc1 | – | inactive: -10.4%

Row | Compound | Potency | activity, negative = inhibition
53 | CCCC(c1nnnn1Cc1ccco1)N1CCN(C(=O)c2ccco2)CC1 (configuration not stated) | active: 12.6 µM | –
54 | CC1(C)C2CCC(C2)C1(C)NC(=O)CNCc1cccs1 (configuration not stated) | inconclusive [inhibitor, single point] | –
55 | O=C(CCn1nnc(-c2cccs2)n1)NC1CCCCC1 | – | inactive: 6.77%
56 | O=c1c2ccccc2nc(SCc2cn3ccsc3n2)n1-c1ccccc1 | inconclusive [inhibitor, partial curve] | –
57 | CC(=O)Nc1cccc(OCCCNC(=O)C2CCC2)c1 | inconclusive [inhibitor, single point] | –
58 | CC1=CS/C(=C(/C#N)C(=O)NCc2ccco2)N1c1ccccc1 | – | inactive: -17.5%
59 | CCc1cc(SC#N)ccc1N | inconclusive [inhibitor, partial curve] | –
60 | CCCC(C)NC(=O)c1ccc(-c2ccccc2)cc1 (configuration not stated) | – | inactive: 9.78%
61 | O=C(NCCSC1CCCCC1)c1ccccc1 | inconclusive [inhibitor, single point] | –
62 | COc1ccccc1NC(=O)CCc1c(C)[nH]c(=O)c(C#N)c1C | inconclusive [inhibitor, single point] | –
63 | CC(=O)Nc1sc(NC(=O)c2ccccc2)nc1-c1cccs1 | – | inactive: 5.5%
64 | C=CCc1cccc2cc(C(=O)N(CC)CC)c(=O)oc12 | – | inactive: -10.4%
65 | COc1cc(C2C3=C(CC(C)(C)CC3=O)OC3=C2C(=O)CC(C)(C)C3)cc([N+](=O)[O-])c1O | – | inactive: 9.53%
66 | Cn1cc(C(=O)NCCN2CCN(c3cccc(Cl)c3)CC2)c2c3ccccc3n(C)c2c1=O | inconclusive [inhibitor, partial curve] | –
67 | COc1ccc(C)cc1S(=O)(=O)N(CC(=O)N1CCOCC1)Cc1ccccc1 | – | inactive: -5.56%
68 | COc1ccc(CNC(=O)c2cc3c(=O)n4ccccc4nc3n(Cc3cccnc3)c2=N)cc1 | inconclusive [inhibitor, single point] | –
69 | O=[N+]([O-])c1cccc(C(=S)N2CCN(c3ccc(F)cc3)CC2)c1 | active: 22.4 µM | –
70 | CCOC(=O)c1ccc2c(c1)nc(C1CCN(S(=O)(=O)c3cccs3)CC1)n2CC | inconclusive [inhibitor, partial curve] | –
71 | COc1cccc(OCc2nnc(SCC(=O)OCc3ccccc3)o2)c1 | inconclusive [inhibitor, single point] | –
72 | O=C(CSc1nc2ccccc2s1)NNC(=S)Nc1ccc(Cl)cc1 | inconclusive [inhibitor, partial curve] | –
73 | O=C(OC(C(=O)NCc1cccs1)c1ccccn1)c1cccs1 (configuration not stated) | inconclusive [inhibitor, single point] | –
74 | CC(=O)Nc1ccc(C(=O)Cn2nnc3ccccc3c2=O)cc1 | active: 8.91 µM | –
75 | Cc1cccc(-c2n[nH]c(=S)n2/N=C/c2ccc(C)s2)c1 | – | inactive: -1.23%
76 | COCCCNC(=S)NNC(=O)c1ccc(S(=O)(=O)N2CCC(C)CC2)cc1 | – | inactive: -1.66%
77 | CC(C)NC(=O)c1onc(CSc2ccc(Cl)cc2)c1C(=O)O | inconclusive [inhibitor, single point] | –
